About 1,700 (3.3%) of roughly 52,000 compounds were called active. Rule as the data show it: active = survival mostly below about 52% (no sharp cut-off); inactive = mostly above about 56%. Some of the results follow.

In the assay the test system is Wild type. Put plainly: S. aureus survival, RN4220 and DeltatarO strains – OD600, teichoic acid synthesis inhibitors, primary screen (AID 463173). To be noted: S. aureus RN4220 wild type/DeltatarO growth, OD600, 18 h, hits give low values, screened at 18.75 µg/mL (by protocol).
In the case of `CC(C)N(C(=O)CSc1nnc(CSc2ncccn2)n1C)C(C)C`, the survival was inactive: 102%. Regarding `CC(NC1CCCC1)c1ccccc1` (stereo unspecified), the survival is inactive: 107%.

As to `CCc1ccc(CN(Cc2ccco2)c2cnc(S(C)(=O)=O)nc2C(=O)Nc2ccccc2Cl)cc1`, the survival was inactive: 120%. As to `Fc1ccc(Nc2c3c(nc4ccccc24)CCC3)cc1`, the survival is inactive: 70%. Next, `CCc1nnc(SC(CC)C(=O)Nc2cccc(OC)c2)c2cc3oc(C)cc3n12` (stereo unspecified): inactive: 82%. Next, `Cc1ccc(Sc2c(C)nn(C(C)(C)C)c2OC(=O)C(C)(C)C)cc1`: active: -8%; `Cc1cccc(OCC(=O)N2CCc3ccccc32)c1`: inactive: 106%; `CN1C(=O)CC(NCCc2ccc(S(N)(=O)=O)cc2)C1=O` (stereo unspecified): inactive: 104%. As for `COC(=O)c1scc(-c2ccc(C)cc2)c1S(=O)(=O)N1CCN(c2cccc(OC)c2)CC1`, the figure is inactive: 53%; as for `CNC(=S)N(Cc1cccnc1)Cc1cc2cc(OC)ccc2[nH]c1=O`, inactive: 112%; as for `CCOC(=O)c1ccc(NC(=O)CC2C(=O)OCCN2CC)cc1` (stereo unspecified), inactive: 66%. Take `O=C(NCc1ccco1)c1ccc2c(c1)N(Cc1ccc(Cl)cc1)C(=O)c1ccccc1S2=O` (stereo unspecified): the survival was inactive: 165%. For the compound `Cc1ccc(NC(=O)Nc2ccc3snnc3c2)cc1C`, the survival is inactive: 90%. With `CCN(c1ccccc1)c1nnc(NC(=O)Nc2ccccc2F)s1`, the survival is inactive: 108%.

Turning to `CCN(C(=O)C1CCCN(S(=O)(=O)c2c(C)noc2/C=C/N(C)C)C1)c1cccc(C)c1` (stereo unspecified), the survival was inactive: 76%. Next, `COC(=O)c1ccc(Cn2c(=O)cc(C)c3c(C)nn(C)c32)cc1`: inactive: 53%.

Regarding `Cc1cc(=O)[nH]c2nnc(SCC(=O)Nc3cc(C(F)(F)F)ccc3Cl)n12`, the survival was inactive: 136%. `CCc1ccc(CNC(=O)c2nn(-c3ccc(C)c(C)c3)nc2CO)cc1`: the survival is inactive: 116%.

Turning to `CCC(C)NC(=O)Cn1ncc2c(C)n(Cc3ccc(F)cc3)c(C)c2c1=O` (stereo unspecified), the survival is inactive: 81%. Turning to `Cc1ccc2c(=O)cc(C(=O)Nc3sc4c(c3C(=O)NCc3ccco3)CCCC4)oc2c1C`, the survival is inactive: 84%. Next, `Cc1ccc2c(CNCc3cccs3)c(C(=O)O)n(Cc3ccc(F)cc3)c2c1`: inactive: 78%; `CC(=O)CSc1nc(-c2ccccc2)[nH]c1S(=O)(=O)c1ccc(C)cc1`: inactive: 77%.

Take `CCOc1ccc(Sc2cc(C(=O)NCc3ccc(F)cc3)c3ccccc3n2)cc1`: the survival is inactive: 146%. For `CCn1cc(C(=O)N2CCN(c3ccccc3)CC2)c(=O)c2cc(S(=O)(=O)N(C)C3CCCCC3)ccc21`, the survival was inactive: 81%. As for `CC(C)(C)C(=O)N1c2ccccc2CCc2ccccc21`, the figure is inactive: 117%; as for `O=C(NC1CCCCC1)C1OC(c2ccccc2)OC1C(=O)NC1CCCCC1` (stereo unspecified), inactive: 100%. For `CN(C)c1ccc(C(CNC(=O)COc2ccccc2)N2CCOCC2)cc1` (stereo unspecified), the survival was inactive: 78%. As for `CCN(CC)S(=O)(=O)c1ccc2c(c1)N(CC(=O)NCc1ccccc1)C(=O)CS2`, the figure is inactive: 79%; as for `Cn1ncc2c(NCc3cccc(Cl)c3)ncnc21`, inactive: 135%. Regarding `COc1cc(Cl)c(C)cc1NC(=O)CSc1cc(=O)n(C)c2cc(Cl)ccc12`, the survival is inactive: 82%.

Regarding `CCOc1ccc(NC(=O)Nc2c(C)n(C)n(-c3ccccc3)c2=O)cc1`, the survival was inactive: 73%.

For the compound `O=C(CN1C(=O)CCSc2ccc(S(=O)(=O)N3CCCC3)cc21)Nc1cccc(Cl)c1`, the survival is inactive: 89%. With `Cc1ccc(-c2noc(CCC(=O)Nc3ccc(F)cc3Cl)n2)cc1`, the survival is inactive: 83%. As for `Cc1c(Cl)cccc1NC(=O)N1CCN(Cc2cc(=O)n3nc(-c4ccccc4F)sc3n2)CC1`, the survival was inactive: 70%. As for `CCCS(=O)(=O)N1CCC(N2CCN(Cc3ccc(C)cc3)C(=O)C2=O)CC1`, the figure is inactive: 81%; as for `Cc1nn(C)c2c1c(-c1ccccc1)cc(=O)n2Cc1ccccc1F`, inactive: 120%; as for `O=C(O)/C(=C/C(=O)c1ccccc1)Nc1ccccc1`, inactive: 100%. As for `COc1ccc(NC(=O)c2cccc(N3CCCS3(=O)=O)c2)cc1`, the figure is inactive: 69%; as for `NC(=O)CSc1ncc2c(n1)-c1ccccc1N(Cc1ccccc1)S2(=O)=O`, inactive: 69%; as for `Cc1cc(C)c2c(=O)cc(C(=O)NCCc3ccc(S(N)(=O)=O)cc3)oc2c1`, inactive: 91%. As for `COc1ccc(NS(=O)(=O)c2ccc3c(c2)CCN3C(=O)C2CC2)cc1OC`, the figure is inactive: 84%; as for `O=C(Cc1cccs1)N1CCC(Cc2ccccc2)CC1`, inactive: 112%. Consider `Cc1ccccc1CNC(=O)C(=O)NCC(c1ccco1)S(=O)(=O)c1ccc(F)cc1` (stereo unspecified), for which the survival was inactive: 55%. Turning to `CC(C)OC(=O)CSc1n[nH]c(-c2cccnc2)n1`, the survival is inactive: 101%. With `COc1cccc(CNC(=O)Cn2c(=O)c3cccn3c3ccc(F)cc32)c1OC`, the survival is inactive: 121%. `COC(=O)c1ccc(COC(=O)c2ccccn2)cc1`: the survival is inactive: 107%. Next, `Cc1cccc(NC(=O)C(c2ccccc2)N2Cc3ccccc3C2=O)c1C` (stereo unspecified): inactive: 78%. As for `Cc1cccc(NC(=O)CSc2nnc(-c3cccs3)o2)c1`, the figure is inactive: 85%; as for `COc1ccccc1N1CCN(C(=O)CCn2cnc3onc(-c4ccc(F)cc4)c3c2=O)CC1`, inactive: 87%; as for `COc1cccc2cc(-c3nnc(Nc4ccccc4C)s3)c(=O)oc12`, inactive: 74%. On to `CNC(=O)CN(C1CCCCC1)S(=O)(=O)c1ccc(C)cc1`, for which the survival is inactive: 121%.

As to `COC(=O)c1sccc1S(=O)(=O)N(CC(=O)Nc1ccc(C)cc1)c1ccccc1`, the survival is inactive: 99%. As for `Cc1cc(C)cc(N2C(=O)CS(=O)(=O)C23C(=O)N(Cc2ccc(F)cc2)c2ccc(C)cc23)c1` (stereo unspecified), the figure is inactive: 76%. As for `COc1ccc(NC(=O)Cn2c(=O)nc(-c3ccccc3)c3ccccc32)cc1OC`, the figure is inactive: 85%; as for `Cc1cc(F)ccc1NC(=O)C1CCCN(c2nnc(-n3c(C)ccc3C)s2)C1` (stereo unspecified), inactive: 81%.

Take `Cc1ccc(CCNC(=O)NCc2noc3ccc(C)cc23)cc1`: the survival was inactive: 85%. As for `CCOc1ccc(-c2cc3nc(C4CCN(C(=O)OC(C)(C)C)CC4)c(C(=O)Nc4ccc(C(=O)OC)cc4)cn3n2)cc1`, the figure is inactive: 125%; as for `Cn1ncc(C(=O)N2CCN(c3ccccc3)CC2)c1C1CCN(C(=O)OC(C)(C)C)CC1`, inactive: 85%; as for `Cc1cc(C)n2nc(CNC(=O)c3cccc(Cl)c3)nc2n1`, inactive: 76%. Consider `CS(=O)(=O)N1CCC(c2nc3c(nnn3Cc3ccc(F)cc3)c(=O)[nH]2)CC1`, for which the survival was inactive: 119%. As for `COc1cc(S(=O)(=O)N2CC(C)OC(C)C2)c(OC)cc1Cl` (stereo unspecified), the figure is inactive: 103%; as for `CSc1ccc(CCNC(=O)C(C)n2nc(C)c3c(C)n(-c4ccccc4)nc3c2=O)cc1` (stereo unspecified), inactive: 64%; as for `Cc1cccc(CNC(=O)c2ccc(-c3nc(CS(=O)(=O)c4ccccc4)c(C)o3)cc2)c1`, inactive: 87%. As for `Cc1ccc(CCNC(=O)Cn2nc(C)c3c(C)n(-c4ccc(C)cc4)nc3c2=O)cc1`, the figure is inactive: 71%. Consider `C=CCN1CCN(C(c2ccc(C)cc2)c2nnnn2C2CCCC2)CC1` (stereo unspecified), for which the survival is inactive: 107%. Next, `N#CC1=C(N)SC(N)=C(C#N)C1c1cc2c(cc1Cl)OCO2`: inactive: 112%; `CCN1C(=O)/C(=C/C=C2\Oc3ccccc3N2CC)SC1=S`: inactive: 99%. Next, `CN(C)c1ccc(-c2nc(-c3ccccn3)no2)cc1[N+](=O)[O-]`: inactive: 80%; `Cc1ccc(NC(=O)COc2ccc3oc4c(c3c2)CCCC4)c(C)c1`: inactive: 75%; `CCN(Cc1ccccc1)C(c1ccccn1)c1nnnn1C(C)(C)CC` (stereo unspecified): inactive: 108%. Next, `Nc1ncc(S(=O)(=O)NCc2ccccc2F)cn1`: inactive: 56%. As to `Cc1ccc(Nc2cc(C(=O)NC3CCCC3)c3ccccc3n2)cc1C`, the survival is inactive: 51%. `COc1ccccc1N1CCN(C(=O)C2CCN(S(=O)(=O)c3cccc4nonc34)CC2)CC1`: the survival is inactive: 55%. As for `CC(C)COc1ccc(C(=O)NCC2OCCc3ccccc32)cc1` (stereo unspecified), the figure is inactive: 90%; as for `CCOC(=O)c1c(C)n(-c2ccccc2)c2ccc(OC(=O)c3ccccc3Cl)cc12`, inactive: 60%. Turning to `CCOc1ccc(CCNC(=O)C2CCCN(c3nnc(C)c4c(C)n(-c5ccccc5)nc34)C2)cc1` (stereo unspecified), the survival was inactive: 82%. Next, `NC(=O)c1c(NC(=O)c2noc3c2CCCC3)sc2c1CCCC2`: inactive: 73%. As for `COC(=O)c1cc(NC(=O)CCS(=O)(=O)c2cc(Br)cc3c2N(C(=O)C2CC2)CC3)cc(C(=O)OC)c1`, the figure is inactive: 84%. Next, `CCc1ccc2nc(N3CCCCC3)c(C#N)cc2c1`: inactive: 101%; `CCOc1cc2[nH]c(=O)n(CCC(=O)N3CCN(c4cccc(Cl)c4)CC3)c(=O)c2cc1OCC`: inactive: 97%. Consider `Cc1ccc(Cl)cc1N1CC(O)=C(c2nc3ccccc3c(=O)[nH]2)C1=N`, for which the survival is inactive: 106%.

`COc1ccc2oc(=O)c(C(=O)NCCc3c(C)[nH]c4c(C)cccc34)cc2c1`: the survival is inactive: 71%. Next, `CCn1c2ccccc2c2cc(NC(=O)COc3cc(C)c(Cl)c(C)c3)ccc21`: inactive: 52%; `COc1ccc(-n2nc(C(=O)O)cc2-c2ccccc2)cc1`: inactive: 101%. Next, `Cc1ccccc1C(=O)Nc1ccc(NC(=O)c2cccs2)cc1`: inactive: 77%; `CCOc1ccc(-c2csc3ncnc(Nc4cccc(O)c4)c23)cc1`: inactive: 74%; `CCOC(=O)Cn1nc(C)c(NC(=O)COc2ccc(OC)cc2)c1C`: inactive: 99%. Take `CCOC(=O)c1c(C)oc2nc(C)nc(N3CCN(c4ccc(C)cc4C)CC3)c12`: the survival was inactive: 127%.

As for `COc1ccc(C(=O)NCC(c2ccco2)S(=O)(=O)c2ccccc2)cc1` (stereo unspecified), the survival was active: -6%. Next, `CC(=O)N1CCCc2cc(S(=O)(=O)N3CCC(C(=O)NCc4ccc(F)cc4)CC3)ccc21`: inactive: 85%.

On to `O=C1N(c2ccccc2)C(=O)N(c2ccccc2)C2c3ccccc3C=CN12` (stereo unspecified), for which the survival was inactive: 117%.
